# Data reported in the supplement of paper PMC11417369.
# The list shows a part of the results.
# Tested on: PfHDP1 homeodomain (GST-tagged)
# Assay: gcPBM binding intensity (ln(normalized median fluorescence intensity)); higher = stronger DNA binding
# Method in brief: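 Binding intensity is defined as the maximum Masliner-normalised natural-log median intensity across replicate spots for either probe orientation. It was measured on an Agilent 4 × 180k array of primer-extended double-stranded 36-bp intergenic genomic probes and negative controls, to which GST-tagged P. falciparum DNA-binding domains made in E. coli were applied for 1 h in 1× PBS with 1% milk, 0.2 mg/ml BSA, 0.5% salmon testes DNA and 0.03% Triton X-100. Detection was by Alexa488 anti-GST antibody and scanning at 488 nm.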
row,Sequence,gcPBM binding intensity (ln)
1,TTTTTTTTTTTTTTTAAACACACGGTGTGAAAATTA [CACACA_site3818],6.46
2,ATTTGATAGACACATGCACACATGCAATACTTTATT [CACACA_site5633],9.05
3,TTTTCTGTGTTTACATGTACGAAAGATTAATATTAT [XGTACX_site5214],6.7
4,TTATCATATCATGGAAGTACAAATAAAATATATAAC [XGTACX_site1608],7.06
5,ATATGCACTTTTTGCACACGTATGAATAACAAAATA [CACACA_site1810],11.2
6,GATGAATAATATGTATGTACATATGCATTATGATGT [XGTACX_site7655],6.73
7,ACATATAGATAAATATGTACATATATATATATATAT [XGTACX_site1806],9.16
8,AGTAGAATATCCCCTACACACCCAAGTAATTTACAA [CACACA_site6708],7.22
9,AAATGTGAAAAAGAGTGTACCCGACTTGAAATTAAG [XGTACX_site8621],6.92
10,TTTAATTTTCAATGGCGTACATATAAAATATTATAT [XGTACX_site1672],6.14
11,AATTAAAAGTGAAGAGTGCATAGAATTTTTTACTTT [GTGCAC_site9973],7.26
12,ATAATTATATTTAGTGGTACTACTTTTGATAATTAG [XGTACX_site6562],6.19
13,TATAAGTGCCGTTATACACACGTTATATAAATATTA [CACACA_site4401],6.58
14,TGTAATATATGTATTGCACACCTATAACCATTATTT [CACACA_site8422],9.86
15,GACAATTATATGTAGGTGCATATACAAATTTTTTAA,9.14
16,ATAGGATATTATTCCTGTACATATATATATATATAT [XGTACX_site2108],9.35
17,ATCAAAAGAAGACACACACACATACCTATAAATATA [CACACA_site7736],6.81
18,AATAGTTATTCCAGGTGTACATAACATATAATTTAC [XGTACX_site1340],6.19
19,TTATTATTATTACTTACGCACACTTTTTTTTTTATT [CACACA_site411],7.55
20,ATATAAGTATATCTATGTACATACAATATAAATGTA [XGTACX_site2153],6.28
21,TATATACATACATATTGTACTTATAAAGATTAATTT [XGTACX_site2203],6.33
22,ATAAAAAATATCACATAAAATAAAAAAAGAAAGGAT [XGTACX_negctrl_site294],7.21
23,ATATATAAAAATAAATGTACATATTCATATGATGAT [XGTACX_site3411],6.46

row,Sequence,gcPBM binding intensity (ln)
1,TATATATATACAGTAGTGCATATATTTAAAATATAT [GTGCAC_site9999],8.59
2,TATATATAAAAATATACACACTGTATTATTGTAATA [CACACA_site5959],6.33
3,ATAACGAACACTATTACACACATACATACATATGTA [CACACA_site5092],7.08
4,AAAAAAAAAAAAAACACACACACATAGACCTCCAAT [CACACA_site3563],6.76
5,TTTTTTGTTACAACAGTGCAAAAAAACCTTAATGTT,8.41
6,ATATATATATATATATGTACATACAATTATATTCTC [XGTACX_site1133],9.37
7,AAAAATCATTTAAGAACACACAAATATTTCCATTAA [CACACA_site1488],6.12
8,TACATAAATTTTAATACATGCAAATAAAATATATAA [TGCATGCA_site131],6.54
9,AATCTTCTTAATTGTAGTACACAATTTATAAACAAA [XGTACX_site8706],6.64
10,AAAAAAAAAAAAAACACACAAACAAATGAATAAATA [CACACA_site3300],6.54
11,TGTATATACATAAAGTGTACGTATATTTATATATAT [XGTACX_site4320],6.71
12,TATTTTTATTTTACATTATTTGTTTATAATTCTTAA [CACACA_negctrl_site1358],6.4
13,AATAAATAAATAAATATATATATATATATATATATA [CACACA_negctrl_site708],9.33
14,ATATATATATATAATGCACACATTATAAATTATGTA [CACACA_site5802],10.6
15,ATCTTTTATATATTCACACATAAAATTATACAGATA [CACACA_site5277],6.7
16,TTTTTTTTTTATTCATGTACGTATTTAAATAATTCT [XGTACX_site2651],6.58
17,GAGTTTTAATGTAATAGTACTTTAATTATTATATAT [XGTACX_site4527],6.47
18,AAAACACAATTTATTACACACATATATTATAGATTA [CACACA_site6780],6.61
19,GATCGCATGAAATGAACACACATAAAAAAAATATAC [CACACA_site4087],6.76
20,AAAAAAAAAATATACACACACACATACCCATAAATA [CACACA_site5981],6.91
21,TTATAAAAATACAGTTAACACACATGTGTATATATA [CACACA_site9257],7.13
22,AAAATAATCTTATGCACACCAAAAATTTATATAATC [CACACA_site1235],10.6
23,TATATATATAAGGATAGTACATATATTTATATGATT [XGTACX_site4954],7.56

row,Sequence,gcPBM binding intensity (ln)
1,GACTACACACAAGGGTGTACATATATATTATATATA [XGTACX_site2247],6.67
2,TTAACTTATTTGTAAAGTACATTAATAAAAAGAAAA [XGTACX_site1588],6.55
3,AGGTTATAATTGTTTTCACACATTTAAAAATGTTAT [CACACA_site5097],6.65
4,TTATATATTTCTATTGCACACTATATTTTATGAAGA [CACACA_site2910],10.3
5,AAAATTATAAAATGGGCACACATGAATATTGTAGTA [CACACA_site5261],6.56
6,ATGAAATTTATATCATGTACATACAAGAGAAAAAAA [XGTACX_site3326],6.54
7,GTATAATAAATGATAGCACACATATGTACTTATATA [CACACA_site8188],6.69
8,TTTATTTTAAATTTACGTACATAATTAATCATATTT [XGTACX_site7529],6.41
9,ATAAAAAATTAGGACTGTACATAATTTTTGTGATTT [XGTACX_site2857],6.22
10,ATAATACCATTAATTTGTACATATATATTATATATA [XGTACX_site4345],6.49
11,ATTATATTATATATATGTACATATATATATCATAAT [XGTACX_site1],6.51
12,ACAAAAAGTTACATACGTACGTAAAATTGTAATAAA [XGTACX_site2358],6.58
13,TGCTTCTTTTAAAAACATGTTTGTATTCATTTTATA [CACACA_negctrl_site1627],6.99
14,TTTTGGATGAACAGTACATGCAAAAACAAACTTGTA [TGCATGCA_site16],6.62
15,TATATATATATATATTGTACACATACATGTAGTTTT [XGTACX_site4848],9.29
16,AAAGTAATATATAATACATGCGTAAATATTTATGTA [TGCATGCA_site254],6.85
17,TATATATATATATAGGTGCAATATTGAAAAAATATC [GTGCAC_site9535],9.87
18,GACAAATGAAAAGATTGTACATGTATTTGAAGATTA [XGTACX_site6775],6.65
19,TCTTTTATATTTTTTTGTACACAAGAATAAAGAAAA [XGTACX_site3394],6.73
20,TACACAAAAATTTATACACACACATATATAATATAT [CACACA_site7931],6.8
21,TGATTATATATAAATGTATGCATGTCTATTATGCTA [TGCATGCA_site543],6.45
22,ACATATAAATGATATGTACACACATTTATATATATA [CACACA_site9152],7.4
23,ATTTCTCTATCGTAATGTACAAAAAAAAGGAAAAAA [XGTACX_site1323],6.24

row,Sequence,gcPBM binding intensity (ln)
1,TTTTTAACGTATAAGGTGCACTGTATATGGTACTCA,9.91
2,TCTTCTTTAAAAGAGGTGCACTATATAATGTGATTA [GTGCAC_site9431],9
3,TAATTATACTTATTTTGTACGCAATATTTAAAATAA [XGTACX_site8516],6.41
4,ATGTTGAGTATATATACACACATACAGATATATATA [CACACA_site4967],6.95
5,TCCACACAATTTATAACATGCAAAAAGGCAATAATA [TGCATGCA_site773],6.54
6,TAGGTATATAAATAATGTACATATAAACTATATAGA [XGTACX_site2597],6.95
7,ATTATTTTATTTATTGGTACGTAATTGTAGATTTCT [XGTACX_site3697],6.68
8,TGGAGATAAAATAAAACACACACATATATATATATA [CACACA_site8683],9.16
9,ATACATTCTTATTACTGTACAGGGTTAATTATTTGT [XGTACX_site948],6.81
10,GCAAAAACAAACGTCACACATACAAAGGCCGTGTAA [CACACA_site6043],6.14
11,AATTAGACATAATATACACACATATATTATATATAT [CACACA_site2691],6.91
12,TTCAAAAGATATATCGTGCACATATATATGATGAAA,10.2
13,ATTTTTTTGGAATTCACACACAAAAAAAAAAATAAA [CACACA_site2081],6.5
14,AGCAGTCAGCAGGACAGTACACAGTAGCCAGTAACT [XGTACX_site1999],5.7
15,CAAAATATATTGAATTGTACATAAAAATAAAAATTA [XGTACX_site4193],6.5
16,TTTATTTTATCATTTGCACACGCACGCCCACATAAA [CACACA_site353],10.6
17,TTCGCCCTAAATAGAGTGCATTATATATATTAATAT,8.71
18,TTCCAACCAATACAAACATGCATTTGAAAAAATGTA [TGCATGCA_site119],6.21
19,TTTTTAGGAAAGGCGGCACACATTTATATATTTATT [CACACA_site3672],6.15
20,ATAAAATAAATATAACCACACACGAAAGAGAGAGAA [CACACA_site9075],7.1
21,TTGTATTACATAAATGTTCTTTATTATTTGATAAAA [CACACA_negctrl_site903],6.23
